Changes are numbered by the printed parent chain. Results are given in words; binding and its absence hold for the method and conditions named. In cells and extracts the contact can be indirect.

Chains of the proteins cited; added tags and fusions are not shown.
UniProt Q9NVP2: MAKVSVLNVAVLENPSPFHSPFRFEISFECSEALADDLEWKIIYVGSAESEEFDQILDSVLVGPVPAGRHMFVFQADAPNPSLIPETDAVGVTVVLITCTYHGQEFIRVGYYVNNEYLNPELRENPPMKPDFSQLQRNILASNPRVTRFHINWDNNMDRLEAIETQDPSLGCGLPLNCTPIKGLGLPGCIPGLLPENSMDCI

Assay [1] deals with T1, Strep-CDAN1 HMHA1* BDA1* HMHA2* (three elements mutated) (human) (UniProt Q8IWY9).
T1 sequence: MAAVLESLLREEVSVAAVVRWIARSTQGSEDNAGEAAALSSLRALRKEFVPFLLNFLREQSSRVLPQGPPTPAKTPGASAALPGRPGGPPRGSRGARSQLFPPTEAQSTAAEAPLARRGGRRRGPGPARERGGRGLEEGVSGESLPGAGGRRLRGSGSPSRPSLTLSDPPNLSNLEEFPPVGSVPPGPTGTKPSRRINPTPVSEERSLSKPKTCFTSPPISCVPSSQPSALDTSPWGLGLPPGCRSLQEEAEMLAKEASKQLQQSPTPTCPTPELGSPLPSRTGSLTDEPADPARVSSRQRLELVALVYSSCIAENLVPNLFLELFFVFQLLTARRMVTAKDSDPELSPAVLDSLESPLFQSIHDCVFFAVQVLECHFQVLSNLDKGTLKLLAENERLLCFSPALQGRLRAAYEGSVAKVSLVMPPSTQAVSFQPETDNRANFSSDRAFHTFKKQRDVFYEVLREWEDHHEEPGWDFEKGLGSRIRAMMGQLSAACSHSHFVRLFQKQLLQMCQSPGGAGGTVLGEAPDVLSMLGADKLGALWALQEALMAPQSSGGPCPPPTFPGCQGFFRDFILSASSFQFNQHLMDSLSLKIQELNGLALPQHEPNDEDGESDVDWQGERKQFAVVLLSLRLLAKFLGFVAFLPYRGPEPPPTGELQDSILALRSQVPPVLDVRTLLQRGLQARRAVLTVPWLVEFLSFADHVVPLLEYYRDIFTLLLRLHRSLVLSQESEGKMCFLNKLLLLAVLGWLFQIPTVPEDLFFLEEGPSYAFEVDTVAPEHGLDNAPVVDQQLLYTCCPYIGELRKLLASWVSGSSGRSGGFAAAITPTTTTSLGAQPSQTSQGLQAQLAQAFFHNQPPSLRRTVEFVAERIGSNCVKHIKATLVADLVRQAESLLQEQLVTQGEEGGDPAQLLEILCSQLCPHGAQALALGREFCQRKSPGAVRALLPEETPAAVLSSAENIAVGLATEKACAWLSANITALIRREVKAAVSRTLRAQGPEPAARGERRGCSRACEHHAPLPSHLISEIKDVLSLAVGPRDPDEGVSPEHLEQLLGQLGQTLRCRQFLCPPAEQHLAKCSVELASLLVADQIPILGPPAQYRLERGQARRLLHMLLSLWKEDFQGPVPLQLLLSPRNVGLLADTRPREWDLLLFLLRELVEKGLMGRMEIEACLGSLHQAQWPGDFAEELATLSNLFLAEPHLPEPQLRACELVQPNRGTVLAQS
In words: pull-down; Strep-Tactin pulldown of transiently transfected ST-CDAN1 variants from Flp-In 293 T-REx lysates; endogenous ASF1A, ASF1B and CDIN1 detected by immunoblotting; IP buffer with 1% Triton X-100, 1 hr at 4 °C.

The target in assay [2] is T2, Strep-CDAN1 HMHA1* BDA1* HMHA2* BDA2* (all four binding elements mutated) (human) (UniProt Q8IWY9).
T2 sequence: T1 sequence with S194A, R195A, R196A
The description is as above.

Consider “endogenous ASF1B (from UniProt Q9NVP2 1-202)”, for which the binding entry in assay [1] and in assay [2] was “no binding” each time.

The values above are taken from paper PMC11911400, “Mechanism of ASF1 engagement by CDAN1” (Nature Communications, 2025).
